# Screen size: about 200,000 compounds; about 4,500 (2.2%) were called active. Inconclusive means that the source gave no clear call. Such entries were picked first, then a sample of the others. Calls come from the whole dose curve; as a rule, active = well fitted inhibition curve with a large enough effect; inconclusive = small, poorly fitted or top-dose-only effect, or effect the other way; inactive = flat fitted curve, though single readings scatter. Potencies beside an inconclusive call are fits to weak or partial responses and may not hold up.
# Biological target: Cruzipain (Trypanosoma cruzi) (UniProt P25779)
# Test: qHTS Assay for Promiscuous and Specific Inhibitors of Cruzain (without detergent); note: nearly all actives have a fitted effect of over 40% in size;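 for max response, negative = inhibition: plate controls were enzyme without inhibitor for no effect and buffer without enzyme for full effect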
# Conditions: purified cruzain, Z-FR-AMC fluorescence, no detergent
# How it was run: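 Detergent-free condition (0.00005% Triton X-100) in acetate buffer pH 5.5 with DTT. 1.5 nM enzyme and compound were pre-mixed 15 min, then 2 uM Z-FR-AMC substrate added; reaction progress from fluorescence change between first and third reads (60 s).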
# Potency is the fitted concentration of half-maximal effect; tags give direction and shape of the fitted curve.
# UniProt P25779, sequence (P25779 whole entry, looked up): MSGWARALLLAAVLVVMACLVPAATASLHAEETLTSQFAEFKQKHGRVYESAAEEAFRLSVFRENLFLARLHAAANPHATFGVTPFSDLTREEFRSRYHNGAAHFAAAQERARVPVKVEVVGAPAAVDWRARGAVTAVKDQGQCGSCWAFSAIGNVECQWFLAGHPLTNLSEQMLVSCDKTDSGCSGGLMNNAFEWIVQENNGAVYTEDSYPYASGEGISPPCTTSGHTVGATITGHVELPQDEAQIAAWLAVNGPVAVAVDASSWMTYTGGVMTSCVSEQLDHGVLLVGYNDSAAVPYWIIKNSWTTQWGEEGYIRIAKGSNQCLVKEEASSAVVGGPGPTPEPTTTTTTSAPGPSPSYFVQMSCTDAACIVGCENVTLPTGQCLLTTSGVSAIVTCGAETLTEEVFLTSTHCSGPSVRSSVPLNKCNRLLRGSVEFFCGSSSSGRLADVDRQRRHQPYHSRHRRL
Structure (SMILES),Potency,"max response, negative = inhibition"
COc1cc(OC)c2c(-c3cccc(-c4cccc(N)c4)c3)cc(=O)oc2c1,active: 11.2 µM,–
CCn1cc(C(=O)N2CCN(c3ccc(OC)cc3)CC2)c(=O)c2cc(S(=O)(=O)N(C)C3CCCCC3)ccc21,"inconclusive: 6.31 µM [activator, single point]",–
O=C(Nc1ccc(N2CCCC2)c(Cl)c1)c1ccccc1[N+](=O)[O-],"inconclusive: 39.8 µM [inhibitor, single point]",–
COc1ccc(CNC(=O)c2cc3cccc(OC)c3oc2=O)cc1,–,inactive: -1.78%
O=C(NCc1cccnc1)C1CCCN(S(=O)(=O)c2cccc3nsnc23)C1 (configuration not stated),–,inactive: -0.0157%
CC(C)c1ccc(NC(=S)NN(c2ccccc2)c2ccccc2)cc1,"inconclusive: 25.1 µM [inhibitor, partial curve, poor fit]",–
COC(=O)c1c(NC(=O)CN2CCN(C(=O)c3ccco3)CC2)c2c(C)cccc2n1C,"inconclusive: 31.6 µM [activator, single point]",–
COc1ccc2c(c1)C(=O)[C@H](OC(=O)N[C@H]1CCCc3ccccc31)[C@@H](c1ccc(OC)c(Br)c1)O2,"inconclusive: 39.8 µM [inhibitor, single point]",–
Cc1ccc(NC(=O)Cn2c(=O)c(CNc3ccccc3)cc3cc4c(cc32)OCCO4)cc1,"inconclusive: 39.8 µM [inhibitor, single point]",–
O=C(Nc1ccc(O)c(-c2nc3ccccc3o2)c1)C1(c2ccc(Br)cc2)CCCC1,active: 5.01 µM,–
COc1ccc(C)cc1NC(=O)CCn1nc(C)cc1C,–,inactive: -7.54%
CCC(Sc1nc2ccccc2c2nc(CCc3c(C)n[nH]c3C)nn12)C(=O)Nc1ccccc1F (configuration not stated),"inconclusive: 3.16 µM [activator, full curve]",–
C/C(CC(=O)NC(C)C)=N\NC(=O)COc1cc(C)c(Br)cc1Br,"inconclusive: 39.8 µM [activator, single point]",–
COc1ccc(C2C(C(=O)c3ccccc3)=C(C)Nc3nc4ccccc4n32)cc1OC (configuration not stated),"inconclusive: 39.8 µM [inhibitor, single point]",–
Cc1oc(C)c2c(=O)cc(-c3ccc4c(c3)OCO4)cc(OC(=O)c3ccc(Cl)cc3)c12,"inconclusive: 20 µM [inhibitor, single point]",–
Cc1ccc(-c2nc3ccccc3[nH]2)cc1NC(=O)COc1cccc(C)c1C,"inconclusive: 39.8 µM [inhibitor, single point]",–
CCOC(=O)N1CCN(C(=O)C(C)(C)Oc2ccc(Cl)cc2)CC1,"inconclusive: 39.8 µM [activator, single point]",–
Cc1nn(CCC(=O)N2CCN(c3ccccc3)CC2)c(C)c1S(=O)(=O)N1CCCC1,"inconclusive: 39.8 µM [activator, single point]",–
COC(=O)c1ccc(C2/C(=C(/O)c3ccc(OC(C)C)cc3)C(=O)C(=O)N2c2cc(C)on2)cc1 (configuration not stated),"inconclusive: 31.6 µM [activator, single point]",–
Cc1ccsc1C(=O)N/N=C/c1ccc([N+](=O)[O-])cc1,"inconclusive: 31.6 µM [inhibitor, single point]",–
Cc1cc(NC(=O)CCCN2C(=O)/C(=C\c3cccs3)SC2=S)no1,"inconclusive: 39.8 µM [inhibitor, single point]",–

Structure (SMILES),Potency,"max response, negative = inhibition"
CCc1ccc(C2c3c(-c4cc(C)ccc4O)n[nH]c3C(=O)N2Cc2cccnc2)cc1 (configuration not stated),–,inactive: -14.2%
COc1ccc(OC)c(NC(=O)N2c3ccccc3Sc3ccccc32)c1,"inconclusive: 25.1 µM [inhibitor, single point]",–
c1ccc(-c2ccc(-c3nc(-c4ccccn4)no3)cc2)cc1,"inconclusive: 39.8 µM [activator, single point]",–
Cc1ccc(CNc2ccc(-c3nc(-c4ccccn4)no3)cc2[N+](=O)[O-])cc1,"inconclusive: 3.16 µM [inhibitor, full curve]",–
Cc1ccc(C)c(CN2C(=O)c3ccccc3Sc3ccc(C(=O)N4CCC5(CC4)OCCO5)cc32)c1,"inconclusive: 25.1 µM [activator, partial curve]",–
CCOC(=O)N1CCN(c2c(-c3ccccc3)c3cc(Cl)ccc3[nH]c2=O)CC1,"inconclusive: 39.8 µM [activator, single point]",–
O=[N+]([O-])c1nn(-c2ccc3c(c2)OCCO3)n(O)c1=NCc1ccccc1Cl,"inconclusive: 39.8 µM [inhibitor, single point]",–
CC(=O)N1c2ccc(S(=O)(=O)N3CCCCCC3)cc2CC1C(=O)NCc1ccccc1F (configuration not stated),–,inactive: 2.31%
CCC1(O)CC2CN(CCc3c([nH]c4ccccc34)[C@@](C(=O)OC)(c3cc4c(cc3OC)N(C=O)C3[C@]45CCN4CC=C[C@@](CC)([C@@H](OC(C)=O)[C@]3(O)C(=O)OC)[C@H]45)C2)C1 (some centres not stated),"inconclusive: 25.1 µM [activator, single point]",–
COc1ccc(CNC(=O)Cn2nnc(-c3ccc(NC(=O)C4CCCCC4)cc3)n2)cc1,active: 10 µM,–
CCOc1ccc(OCC)c(Nc2cc(C)nc3nc(-c4ccco4)nn23)c1,–,inactive: 0.718%
O=C(Nc1ccccc1-c1nnc(SCc2ccccc2Cl)o1)c1ccccc1,"inconclusive: 39.8 µM [inhibitor, single point]",–
COc1ccccc1OCCn1cc(/C=N/n2cnnc2)c2ccccc21,"inconclusive: 39.8 µM [activator, single point]",–
Cc1ccc(-c2nnn(CC(=O)N(Cc3ccccc3)C(C(=O)NC3CCCC3)c3ccncc3)n2)o1 (configuration not stated),"inconclusive: 31.6 µM [activator, single point]",–
Cn1cc(CCCC(=O)NCc2ccccc2Cl)c2ccccc21,–,inactive: -7.17%
COc1ccc(S(=O)(=O)N2CCN(c3ccc4nnc(-c5ccccc5)n4n3)CC2)cc1,"inconclusive: 15.8 µM [activator, partial curve]",–
CCOc1ccc(CCNC(=O)Cn2nnc(-c3ccc(C(F)(F)F)cc3)n2)cc1OCC,–,inactive: 4.55%
CCOC(=O)CSc1nc2cc(C(=O)N3CCC(C(N)=O)CC3)ccc2c(=O)n1-c1ccccc1,"inconclusive: 25.1 µM [activator, single point]",–
Cc1ccc(C)c(CSC2=NCCN2C(=O)Cc2ccc([N+](=O)[O-])cc2)c1,–,inactive: -27%
CCOC(=O)c1cnc2c(-c3ccccc3)cnn2c1N,"inconclusive: 31.6 µM [inhibitor, single point]",–
CCOc1cc(C(=O)NCCc2csc(-c3ccc(C)cc3)n2)cc(OCC)c1OCC,–,inactive: -5.45%

Structure (SMILES),Potency,"max response, negative = inhibition"
S=C1NCCc2ccc(Cl)cc2C1c1ccccc1Cl (configuration not stated),"inconclusive: 31.6 µM [inhibitor, single point]",–
COc1ccc(OC)c(S(=O)(=O)N(C)CC(=O)N2CCN(c3ccccc3)CC2)c1,"inconclusive: 39.8 µM [activator, single point]",–
CC1CC(C)CN(C2CCN(Cc3cccnc3)CC2)C1 (configuration not stated),–,inactive: 3.75%
CCC(C)(C)NC(=O)Cn1c(=O)ccc2cc(S(=O)(=O)N3CCC(C)CC3)ccc21,–,inactive: -0.356%
CCOC(=O)N1CCC(NC(=O)c2ccc3c(c2)N(Cc2cc(C)ccc2C)C(=O)c2ccccc2S3=O)CC1 (configuration not stated),"inconclusive: 25.1 µM [activator, single point]",–
O=C(CSc1nccn1Cc1ccccc1)Nc1ccc2c(c1)OCO2,–,inactive: 6.61%
Cc1ccc(Sc2nnc(-c3ccccc3)cc2C#N)cc1,"inconclusive: 39.8 µM [inhibitor, single point]",–
O=C1CC(c2ccc(F)cc2)Cc2nc(N3CCN(c4ccccc4)CC3)ncc21 (configuration not stated),"inconclusive: 39.8 µM [inhibitor, single point]",–
CN1C(=O)C2(c3ccccc31)N(c1ccc(F)c(Cl)c1)C(=O)CS2(=O)=O (configuration not stated),"inconclusive: 3.16 µM [inhibitor, full curve]",–
Cc1cc(C)c2c(n1)nn1c(C)c(CCC(=O)NCc3ccc(Cl)cc3)c(C)nc21,–,inactive: 1.57%
Cc1ccc(Cl)cc1N1CCN(C(=O)C2CCN(S(=O)(=O)c3ccc4c(c3)oc(=O)n4C)CC2)CC1,"inconclusive: 5.01 µM [activator, full curve]",–
O=C(CCn1nc(-c2ccc(Cl)cc2)c2ccccc2c1=O)Nc1ccc(OC(F)(F)F)cc1,–,inactive: -9.22%
O=C(Nc1ccc(F)cc1Cl)C1Cc2ccccc2N1C(=O)c1ccccc1 (configuration not stated),–,inactive: -3.04%
CCOc1cc(/C=N/NC(=O)COc2ccc(C)cc2)ccc1OC(=O)c1cccs1,"inconclusive: 39.8 µM [inhibitor, single point]",–
Cc1ccc(NC(=O)Cn2c(-c3ccc(F)cc3)cnc2SCC(=O)Nc2c(C)cccc2C)cc1,"inconclusive: 31.6 µM [inhibitor, single point]",–
COc1ccc(OC)c(CC(NC(C)=O)C(=O)NC2CCN(c3c(Cc4ccccc4)c(C)nc4ncnn34)CC2)c1 (configuration not stated),"inconclusive: 20 µM [activator, partial curve]",–
COC(=O)c1c(N)n(-c2ccc(OC)c(Cl)c2)c2nc3ccccc3nc12,–,inactive: -3.07%
Cc1ccc(-c2nn(-c3ccccc3)cc2C2CC(c3cccs3)=NN2C(=O)CCCC(=O)O)cc1 (configuration not stated),"inconclusive: 25.1 µM [activator, partial curve]",–
CCOc1ccc(CCNC(=O)c2cccc(-n3c(C)nc4cccnc43)c2)cc1,"inconclusive: 39.8 µM [activator, single point]",–
CCN1CCN(C(c2ccccc2)c2c(O)cc(C)n(Cc3ccco3)c2=O)CC1 (configuration not stated),"inconclusive: 39.8 µM [inhibitor, single point]",–

# From PubChem BioAssay AID1476 (National Center for Advancing Translational Sciences (NCATS), 2009)
